# In paper PMC6919601, “Identification of Plasmodium dipeptidyl aminopeptidase allosteric inhibitors by high throughput screening” (PLoS ONE, 2019):
# “And” between values parts separate entries of the source, which are not always exact repeats. Equal values may be shown once. The whole screen tested about 110,000 compounds, of which about 230 (0.21%) showed an effect of 50% or more. Some of the results follow.
# Target: DPAP1 (Plasmodium falciparum, UniProt Q8IIJ9)
# Experiment: primary screen, percent inhibition; read by cleavage of a fluorogenic dipeptide substrate; higher = more effect of the substance
# Set-up: species or system P. falciparum D10 trophozoite lysates; single well
# 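Also: 30 min substrate incubation versus DMSO and 10 µM JCP410 controls.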
# Sequence of DPAP1 (Q8IIJ9 whole entry, looked up): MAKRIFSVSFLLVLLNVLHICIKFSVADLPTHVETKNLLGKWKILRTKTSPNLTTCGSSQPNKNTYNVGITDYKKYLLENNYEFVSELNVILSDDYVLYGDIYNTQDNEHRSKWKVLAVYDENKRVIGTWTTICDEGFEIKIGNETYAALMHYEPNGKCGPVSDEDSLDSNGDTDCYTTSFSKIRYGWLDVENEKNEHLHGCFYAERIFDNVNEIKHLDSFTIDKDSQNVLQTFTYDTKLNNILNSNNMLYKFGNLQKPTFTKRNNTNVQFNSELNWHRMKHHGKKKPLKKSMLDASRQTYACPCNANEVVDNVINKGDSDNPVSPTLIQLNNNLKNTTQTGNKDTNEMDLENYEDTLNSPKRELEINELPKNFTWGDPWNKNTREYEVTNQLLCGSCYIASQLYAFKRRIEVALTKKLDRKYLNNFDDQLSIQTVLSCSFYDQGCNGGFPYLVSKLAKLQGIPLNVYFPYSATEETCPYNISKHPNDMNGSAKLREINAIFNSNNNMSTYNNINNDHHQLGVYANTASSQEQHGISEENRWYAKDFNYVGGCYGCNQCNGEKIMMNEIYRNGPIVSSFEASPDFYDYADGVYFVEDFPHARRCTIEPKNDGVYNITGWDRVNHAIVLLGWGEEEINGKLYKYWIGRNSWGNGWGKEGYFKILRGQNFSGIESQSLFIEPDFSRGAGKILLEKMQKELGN
row,SMILES,% Inhibition @ 10 uM
1,Cc1n[nH]c(C)c1CCc1nc2c3ccccc3nc(NCCC(C)C)n2n1,2.6%
2,O=C(O)C(NC(=O)c1ccccc1)=C1CCCCC1,-2.97%
3,COCCn1c(SCC(N)=O)nc2c(c1=O)SCC2,-1%
4,COc1ccccc1C1C(C#N)=C(N)Oc2c1c(C)nn2-c1ccc(C)cc1 (stereo not drawn),0.746%
5,CCN(CCN(C)C)Cc1ccc(O)cc1,5.2%
6,Cc1ccc2oc(=O)c3cc(C(=O)NCCN4CCc5ccccc5C4)sc3c2c1,7.78%
7,COc1ccc(C2=N/C(=C\c3coc4ccccc4c3=O)C(=O)O2)cc1Br,0.0932%
8,O=C(NCc1ccco1)Nc1cnc2ccccn2c1=O,3.66%
9,CCOc1ccc(C2(C)CC(=O)N(C)C2=O)cc1 (stereo not drawn),-0.424%
10,COc1ccc(C(=O)Nc2ccc(C(C)=O)cc2)cc1,6%
11,CCCCN1C(=O)c2cccc3c(S(=O)(=O)N4CCCC4C(=O)O)ccc1c23 (stereo not drawn),-11.2%
12,c1ccc(OC[C@@H]2CCCN3CCCCC23)nc1 (stereo partly drawn),-1.52%
13,Cc1cc2c(cc3c(=O)n(CC(=O)NC(C)CCc4ccccc4)ncn32)s1 (stereo not drawn),-1.7%
14,COC(F)(C(=O)Nc1nc(-c2ccc(C)cc2)cs1)C(F)(F)F (stereo not drawn),-3.71%
15,COc1c(N)cc2c(C)c(C(=O)N3CCOCC3)oc2c1OC,0.00178%
16,CC(C)(C)c1ccccc1OCCCCCN1CCCC1,-4.3%
17,COC(=O)c1cn(C(=O)COc2ccccc2C)c2ccccc12,-2.65%
18,CC(C)(C)C(=O)Nc1cccc(NC(=O)C(C)(C)C)c1,-1.88%
19,C=CCS(=O)(=O)Nc1ccc(OC)cc1,0.132%
20,CCC1(CC)Cc2ccccc2C2=C(C(=O)N3CCCC3)C(=O)C(=O)N21,-2.67%
21,CC1=NN(C(=O)c2ccncc2)C(O)(c2cccnc2)C1 (stereo not drawn),-5.23%
22,CC(Cc1ccccc1)NC(=O)/C=C/C(=O)O (stereo not drawn),0.736% and -3.38%
23,Cc1cccc(-c2noc(-c3cccs3)n2)c1,-5.7%
24,Cc1ccccc1-c1nc(CN2CCC(C(=O)NC3CCCC(C)C3C)CC2)c(C)o1 (stereo not drawn),5.56%
25,O=C(Cn1cnc2c(nc3n2CCCCC3)c1=O)NC1CCCCCC1,-0.238%
26,CC1=C(CCN2CCN(CCO)CC2)C(C)(C)CCC1,-3.72%

row,SMILES,% Inhibition @ 10 uM
1,COc1ccc(Nc2nc(-c3ccccn3)cs2)cc1,0.345%
2,CCCCN(C)CCNC(=O)C1c2ccccc2C(=O)N(C)C1c1cn(C)c2ccccc12 (stereo not drawn),-7.98%
3,Cc1ccc(-n2ncc3c(O)nc(SCC(=O)O)nc32)cc1,-1.54%
4,O=C1NCCc2c1[nH]c1c(Br)cc3c(c21)OCCO3,1.04%
5,COc1ccc(C2=NN(CCC(=O)NC(C)(C)C)C(=O)CC2)cc1,-4.53%
6,COc1cccc2c1OC1(C)CC2/C(=C(\C)O)C(=O)N1 (stereo not drawn),-11.9%
7,COc1ccc(CCNC(=O)CCc2nnc3ccc(N4CCOCC4)nn23)c(OC)c1,-1.2%
8,COc1c(O)cnn(C2CCCCC2)c1=O,-4.15%
9,NC(=O)c1c(-c2ccc(F)cc2)noc1N,3.54%
10,Cc1cc(C)cc(OCC(=O)Nc2ccc(S(=O)(=O)NC(C)(C)C)cc2)c1,6.15%
11,NS(=O)(=O)c1ccc(CCNC(=O)c2cccc(Br)c2)cc1,4.16%
12,COc1ccc(-c2cn3c(n2)sc2cc(C(=O)N4CCC(N5CCCCC5)CC4)ccc23)cc1,19.3%
13,c1ccc(CCN2CCC(N3CCCCCC3)CC2)cc1,-1.81%
14,CCCCOc1ccc(-c2ncc(C(=O)OCC)c(Cl)n2)cc1,5.23%
15,C=CCn1c(NC(=O)CC)nc2ccccc21,-13%
16,CCN(CC)c1ccc(/C=C2/NC(=O)N(Cc3ccc(C)cc3)C2=O)cc1,-6.47%
17,O=C(NCc1ccncc1)c1cc(=O)c2cc(Cl)ccc2o1,-5.08%
18,O=[N+]([O-])c1ccccc1CN1CCCC1,-7.34%
19,Cc1ccccc1S(=O)(=O)Cc1ccc(C(=O)NC(C)CCc2ccccc2)o1 (stereo not drawn),-3.09%
20,Cn1c(SCC(=O)Nc2nnc(Cc3ccccc3)s2)nc2sc3c(c2c1=O)CCCC3,-3.34%
21,COc1ccc(N2CCN(C(=O)c3ccc(C#CC(C)(C)O)o3)CC2)cc1,2.79%
22,CCc1nnc2[nH]c(=O)n(C)c(=O)c2n1,0.569%
23,Cc1cccc(OCCSc2nc3ccccc3n2CC(=O)O)c1,1.76%
24,C=CCOc1cc(Br)c(/C=C2\NC(=O)N(Cc3ccc(Cl)cc3)C2=O)cc1OC,-4.93%
25,COc1ccc(C2C3=C(CC(C)(C)CC3=O)N(CC(=O)O)C3=C2C(=O)CC(C)(C)C3)cc1OC,-5.67%
